Laboratory results: the RNAGym collection of RNA variant scans (doi:10.7554/elife.90254)
Read counts are not given, so values of variants with three or more changes are uncertain.

B1: LINE1-mini (parent)
chain: GGCAGAGCUCAACACAGCGUGGCAAAGUGGCUGUGGCUAGACUGCC

Variants of: B1
Test: self-cleavage, relative activity (ratio to wild type); higher = more cleavage; in vitro, sequencing; the parent is a self-cleaving ribozyme

| Variant | self-cleavage |
| --- | --- |
| C31U G40C C42U | 0.01 |
| G22A C23A A25U G40A | 0.15 |
| C3U C15A U28G C45A | 0.13 |
| C3A A6C U34A A39U | 0.01 |
| C8U G40C C45G | 0.06 |
| C3U A6C C13G C23G | 0.28 |
| C10A A14U U43A | 0.05 |
| C3U C13U A16U C31G | 0.06 |
| C18A A24G G33A U43G | 0 |
| C3A G5C C23G G29C U34C C42A | 0.31 |
| A4G A16G U34C | 0.08 |
| A11C G22C U32C | 0.02 |
| G21U G22U G33C G36A | 0.07 |
| C15A G21C U34G | 0 |
| G17U A24U G40C | 0.04 |
| A4C C13U G21A C37A U38A U43A | 0.66 |
| G19A C23A U28A G36U | 0.02 |
| A24C G33A C42A C46U | 0.03 |
| A6G A14G G22C | 0.08 |
| G1C G5U G7U A11U A26C G35U | 0 |
| G2U G7C G22U U32G G44A | 0.16 |
| A14C G21A G35U | 0.02 |
| C3U G30C A39C | 0.05 |
| G7A A16C C37G | 0.09 |

| Variant | self-cleavage |
| --- | --- |
| A4G G29U G36C | 0.09 |
| A4C A16U G21A | 0.03 |
| G21U U28G G44A | 0.78 |
| C18A A26G U34C | 0.11 |
| C18U U28C C31A G44C C46U | 0.02 |
| G5C G7C C46U | 0.08 |
| A6G G7U A11G U20C A25C G27U | 0.01 |
| G7C C10G C15U A24C | 0.03 |
| G1C A4U G22C C31A C46G | 0.05 |
| G2A G17C C31U | 0.06 |
| C3A A24G A26G A41C | 0.13 |
| A6C G17U C46A | 0.29 |
| C8U C15U G27U C31U | 0.06 |
| A4U C8A A12U A24G A26G C31U | 0.03 |
| G17A G21A G27A G29C U43C | 0.08 |
| C18G U20A G40U | 0.01 |
| G17U U34G G35C C37A | 0.19 |
| A14C G22C C23U C45G | 0.01 |
| C8A A16U C31G C42U | 0.14 |
| A6C C45G C46U | 0.41 |
| C10U U20A G21A | 0.28 |
| A6U G7U A11G A12C C13G U34G | 0.01 |
| G5A G7U G17U C23U G27A U28A | 0.15 |
| A6U G7U A11C | 0 |

| Variant | self-cleavage |
| --- | --- |
| G5U G27U G30U | 0.19 |
| A14U G17A G30U G36A | 0.08 |
| A12U C18A C23G A26C | 0.16 |
| G5U G22C G36U | 0.11 |
| A6G A16U G33U | 0.04 |
| C13A A24C U28G G29U G36U G40C | 0.36 |
| A4U C13A C23A | 0.15 |
| C3G G29A G33A | 0.16 |
| U9G A14G A25C | 0.07 |
| C8U C23U U38C | 0.44 |
| G5U A6G U32C | 0.07 |
| C23A G29C C37G C46U | 0.01 |
| U34A G36U U38A | 0.01 |
| G2C C15U C23A | 0.06 |
| G1A G2U C10U C31A | 0.05 |
| C8G A24G A39C A41U C45U | 0.03 |
| G1A G7C A11C A12G G21A G22U A26U C45A | 0.02 |
| G1C C15U G30C U34C C37A | 0.04 |
| U9A G21U C42U | 0.03 |
| C18U A26C U32A C37U | 0.01 |
| C3A C23U A25G | 1.32 |
| A11C G17U U20G C37A | 0.01 |
| G5A C8U C31U A39U | 0.05 |
| G1U C8G C10A | 0 |

| Variant | self-cleavage |
| --- | --- |
| C8A C18U G19U | 0.06 |
| G22A A26G C37A | 0.01 |
| G5U C8U C10A | 0.01 |
| G2A A11G G22U | 0.04 |
| C8G U9G C10G | 0.03 |
| C8U C10G G30U | 0.02 |
| C15U U20G C23A | 0.69 |
| C15A G17A U28C C46U | 0.02 |
| C10U A26C G36U | 0 |
| G2U G30U G33U G44U | 0.04 |
| G1U G2C G5C A25U U28A U34C | 0.01 |
| A6G A14C C37G C46U | 0.02 |
| G40C C45A C46U | 0.08 |
| C3A A16C U34C | 0.13 |
| G5U A26C G36A C42A | 0.11 |
| G2A A4G U9G C31U C45A | 0.02 |
| C8A G22U A24G A25G A26U U32C U34G C42U | 0.4 |
| C3U C23A G30A U32G | 0.13 |
| G5U C8G A25U G30A C31U A41U | 0.14 |
| C10A A12U G21U C23G G35A | 0.01 |
| G1A A4C G5C G35C C45U | 0.05 |
| G5U C8A G19U G30U C37U | 0.18 |
| A6C A26G G29C U34C G40A | 0.01 |
| G17U G30U G36A G40U A41U | 0.12 |

| Variant | self-cleavage |
| --- | --- |
| A11U C15U G29C C31U | 0.5 |
| A6C C15G G19U G22A C37U | 0.04 |
| A11G G35U A39U C45A | 0 |
| G5C G7A C15G C23G G30U G36C | 0 |
| G5A A11G U20C | 0.03 |
| C13G U38C C46U | 0.01 |
| U9C G30U C42A | 0.03 |
| G2U C15U A16U G44U | 0.02 |
| C18A C37A U43A | 0.03 |
| A4U A6C C31A G36U | 0.02 |
| C8A U20G G40A C45U | 0.19 |
| C3G C15U G40U | 0.3 |
| C3A A4G C18G G19U | 0.02 |
| U9C A16C G21U G40U | 0 |
| G5U A12G G35A | 0.04 |
| G17C A25C U32A A39C | 0.03 |
| G2C A12U G22U | 0.06 |
| G7C U9C C23G C37U A41C | 0.03 |
| A6G G30A C31A C42U | 0 |
| A6G A16C G22A | 0.04 |
| G1C A6C G40U | 0.06 |
| G22A C23U G29C A39C | 0.02 |
| G2U G19A G35A | 0.11 |
| G2C A12C G30A U38G | 0.04 |

| Variant | self-cleavage |
| --- | --- |
| A4G G33A C45A | 0.05 |
| C15A A24U A41G | 0.05 |
| G5U G17C G27U C42U C45U | 0.06 |
| A6U U20G G29U | 0.2 |
| C3G A4C G7C G40C | 0.05 |
| A4U C18U A41C | 0.07 |
| C8U A11U A16U G17C A24C | 0.02 |
| G21A G36A C45G | 0.09 |
| A14G U20C G36C | 0.19 |
| G2C C18A G40A C42G | 0.06 |
| G17U U28G C46G | 0.07 |
| G1U G5A G44C | 0.1 |
| C15U U32G G35C | 0.07 |
| G1U G17U C18A C23G | 0.06 |
| A12U G17C G19C G33U | 0.03 |
| G21A C23A A39U | 0.35 |
| C3A C23A A24C U38G | 0.02 |
| C3A C18A G19A G40U | 0.03 |
| C15U U38G G44U | 0.05 |
| G5U G7U G27A G36A | 0.81 |
| A12C G27U C37U | 0.03 |
| U9G U28A C37A A39C | 0.02 |
| G1C G5U G19U A25G | 0.06 |
| G5A U9G A11C C42G | 0.02 |

| Variant | self-cleavage |
| --- | --- |
| C3A C18U U20G A25G G30A G33A C45G | 0.02 |
| U34A G40C C46A | 0.05 |
| U9A G17C C31A C45G | 0.18 |
| A4G A26U G30A | 0.99 |
| C8U U9G G17U C37G | 0.04 |
| C8U G19U A24U U34C | 0.12 |
| G1A G7C C18U A26C G27C | 0.69 |
| C3A C18U G35A | 0.26 |
| G21C A25G G29C | 0.09 |
| C13A A14U G22A | 0.07 |
| C10G G17U G40U | 0.01 |
| G22U U34A G40U | 0.02 |
| G21A G29A G36U | 0.02 |
| C18G U28A G29C G36A | 0.06 |
| C13A G19C U34C | 0.06 |
| C8G G29U C37A | 0.04 |
| G2U G29C U32A G36A | 0.05 |
| G2A C3U G17U | 0.41 |
| G22U U38G C46A | 0.01 |
| U20C A26U A41U C42U | 0 |
| A6G A12G A14U | 0.02 |
| A6G G17U A41U C42U | 0.02 |
| G5C G17A U34A | 0.1 |
